The values below come from ChEMBL document CHEMBL4888484, “Replenishing the malaria drug discovery pipeline: Screening and hit evaluation of the MMV Hit Generation Library 1 (HGL1) against asexual blood stage Plasmodium falciparum ,using a nano luciferase reporter read-out” (2022).

Screen size: about 150,000 compounds; about 540 (0.36%) showed an effect of 50% or more. The list shows a part of the results.

The test deals with Plasmodium falciparum. As to the kind of experiment: Primary screen in NF54 nanoGlo assay, in single point, at 2uM, 72h; a lower Z score goes with more inhibition. The class given is functional, Erythrocyte. The settings on record: timepoint 72 hour.
Usually % Inhibition stands for the relative decrease from the control value, in per cent. Consider `CC(=O)c1cccc(-n2ccnc2-c2cccc(CN(C)C)c2)c1`, for which the “% Inhibition” value was -8% and the Z score came to 1.43.
Taken in the same sequence, the figures for `Cc1cc(F)c2c(c1)CCCN2CC(=O)N1CCN(c2ccccc2F)CC1` were 10% and -1.29.
As for `NC(=O)c1nnsc1NC(=O)Nc1ccccc1`, the “% Inhibition” value is -11% and the Z score worked out at 1.6.
The corresponding values for `Clc1ccc2nc(Cn3cc(-c4cnc(-c5ccco5)nc4)nn3)[nH]c2c1` are -1% and 0.1.
Taken in the same sequence, the figures for `Cc1nccn1Cc1ccccc1NC(=O)[C@H]1[C@@H]2C=C[C@@]3(CN(C)C(=O)[C@@H]13)O2` were -11% and 1.25.
Taken in the same sequence, the figures for `CCc1nc(C(=O)NC2CCN(Cc3cnc(C)s3)CC2C)c[nH]1` (centres undefined) were 1% and -0.16.
With `CCc1oc(C(=O)Nc2sc(NC)nc2C(N)=O)cc1CN1CCCC1`, the “% Inhibition” value is -5% and the Z score is reported as 0.49.
The corresponding values for `O=C(COc1ccc(S(=O)(=O)N2CCCCC2)cc1)N1CCCC1` are -17% and 3.44.
The corresponding values for `CCN(C(=O)C[C@H](C)S(=O)(=O)c1ccc2c(c1)NC(=O)CO2)c1ccc(OC)cc1` are -13% and 1.64.
The corresponding values for `O=c1c2ccccc2nnn1C[C@H]1CC[C@H](C(=O)N2CCCCC2)CC1` are -9% and 1.7.
As for `CCn1cc(CN(C)c2nc(C(C)C)ccc2C#N)c(C)n1`, the “% Inhibition” value is -22% and the Z score was found to be 3.78.
Taken in the same sequence, the figures for `C#CCNC(=O)CCNc1ccc(Br)cn1` were -2% and 0.24.
The corresponding values for `O=C(Nc1nnc(C2CC2)s1)N1CCCCCCC1` are -3% and 0.63.
Regarding `Cc1cccc(N(C)C(=O)c2nc3ncc(Br)cn3n2)c1C`, the “% Inhibition” value is -13% and the Z score was found to be 1.29.
Taken in the same sequence, the figures for `O=C(C[C@H]1C(=O)Nc2ccccc2N1C(=O)c1ccc(Br)cc1)Nc1cccc(Cl)c1` were -11% and 2.02.
Taken in the same sequence, the figures for `O=C(c1ccc(F)cc1)N1CCN(c2nc(Cc3ccccc3)nc3cc(Cl)ccc23)CC1` were -9% and 1.37.
The corresponding values for `Nc1c2c(nc3c1cnn3-c1cc(F)cc(F)c1)CCCC2=O` are -9% and 1.23.
For the compound `CCCCNC(=O)c1n[nH]c2c1CN(C(=O)c1cccc(OC)c1)CC2`, the “% Inhibition” value is recorded as -8% and the Z score stood at 0.89.
The corresponding values for `Cc1ccc(CCCC(=O)N2CCC[C@@H]2C(=O)O)cc1` are -8% and 1.22.
Taken in the same sequence, the figures for `CCC[C@H]1CN(C(=O)c2cccc3cn[nH]c23)CCN1CCOC` were 4% and -0.6.
The corresponding values for `COc1ccc(NC(=O)N2CCn3ncnc3C2)cc1NC(=O)C1CCCCC1` are -19% and 1.88.
As for `Cc1ccc2nc(N(C)Cc3ccn[nH]3)c(CN(C[C@H]3CCCO3)C(=O)c3ccccc3F)cc2c1`, the “% Inhibition” value was 11% and the Z score is reported as -1.56.
Taken in the same sequence, the figures for `CCOc1ccc(S(=O)(=O)N2C3CCC2CC(n2nccn2)C3)cc1F` (centres undefined) were -5% and 0.72.
Regarding `Cc1cc(C)nc(CCn2cnc(-c3ccccc3)c2-c2cnn(C(C)C)c2)n1`, the “% Inhibition” value is reported as -1% and the Z score was 0.24.
Taken in the same sequence, the figures for `CN(Cc1cc(CN2CCCCC2)cs1)C1CCS(=O)(=O)CC1` were -3% and 0.37.
Taken in the same sequence, the figures for `CCCNc1ccc(C#N)cc1NC(=O)C1=CCCCO1` were 29% and -3.28.
The corresponding values for `CNC(N)=NCc1oc2ccc(F)cc2c1C` are -7% and 1.03.
As to `O=C1c2cccnc2CN1Cc1ccc(C(F)(F)F)nc1`, the “% Inhibition” value was -18% and the Z score amounted to 1.67.
Taken in the same sequence, the figures for `CCc1cccc(C)c1N(CCn1nnc2ccccc21)[C@@H](C)COC` were 32% and -3.64.
The corresponding values for `CCC1(CNC(=O)NCCCn2cc(C)cn2)CCC1` are -8% and 0.83.
The corresponding values for `O=C(O)c1cccnc1CN(Cc1ccccc1)[C@H]1CCCC[C@@H]1O` are 0% and 0.02.
As to `Cc1n[nH]c(C(C)NC(C)c2cccc(C)c2C)n1` (centres undefined), the “% Inhibition” value is recorded as -6% and the Z score amounted to 0.89.
For the compound `C[C@@H](c1nc(Cc2cccs2)nn1CCO)N1CCCCCC1`, the “% Inhibition” value is recorded as -3% and the Z score was 0.52.
The corresponding values for `NC(=O)Cn1cnc2cc3c(cc21)OCCO3` are -5% and 0.46.
The corresponding values for `Cc1n[nH]c(C)c1CC(=O)NCCc1nc(C2CC2)no1` are 1% and -0.18.
Taken in the same sequence, the figures for `CCOc1ccc(NC(=O)Cn2ncn3nc4c(c3c2=O)CCCC4)cc1` were -6% and 0.8.
For `CCc1noc(CCCC(=O)N[C@@H]2CCC[C@@H]2n2ccnc2)n1`, the “% Inhibition” value was -7% and the Z score amounted to 1.35.
Taken in the same sequence, the figures for `CCn1nc(C)c(CN2CCn3nc([C@@H](O)CC(=O)N(C)C)cc3C2)c1C` were -7% and 0.92.
The corresponding values for `C[C@H]1CC2(CCNCC2)CN1C(=O)c1cc2ccccc2n1C` are -4% and 0.71.
The corresponding values for `Cc1noc([C@@H]2CN(C(=O)NCCc3cccc(C(F)(F)F)n3)C[C@H](C)O2)n1` are -7% and 0.75.
`O=C(NCCc1c[nH]cn1)c1ccc2c(c1)n(CC1CC1)c(=O)n2C1CCCCC1`: the “% Inhibition” value is given as 24% and the Z score was -3.88.
The corresponding values for `CCOC(=O)c1cc(CN2CCC(C)(C)S(=O)(=O)CC2)on1` are -3% and 0.46.
